In the BET-seq Pho4 binding data (Le et al. 2018):
Some of the results follow. The energies were worked out here from pooled read counts, against the library average; single values are noisy.

target: T1, Pho4 (S. cerevisiae) (UniProt P07270); experiment: relative binding free energy (BET-seq); higher = weaker binding; details: reference: library average
T1 sequence: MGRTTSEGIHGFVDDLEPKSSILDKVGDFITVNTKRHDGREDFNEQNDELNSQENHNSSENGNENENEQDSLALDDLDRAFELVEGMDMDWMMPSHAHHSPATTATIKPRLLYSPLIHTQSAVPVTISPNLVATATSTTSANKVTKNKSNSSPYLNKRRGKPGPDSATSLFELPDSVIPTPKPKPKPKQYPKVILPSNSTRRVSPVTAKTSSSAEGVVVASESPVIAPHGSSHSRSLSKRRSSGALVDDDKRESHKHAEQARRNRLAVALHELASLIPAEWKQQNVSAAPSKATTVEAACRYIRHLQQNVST

Sequence | relative binding free energy [kcal/mol]
AATTTCACGTGGGAAA | 0.29
ATGCGCACGTGTGTAG | -0.1
TAATACACGTGTAGGG | -0.06
CGTTACACGTGTGGGG | 0.18
ACATGCACGTGGCGTG | -0.16
TGGTTCACGTGGCCTG | 0.26
GATATCACGTGCGAGG | 0.4
CTGTTCACGTGTAAGG | 0.32
TTTAGCACGTGAGAGG | 0.37
TGAGGCACGTGGTTAA | -0.26
GCTCTCACGTGGGGAG | 0.29
GTATACACGTGGGTCT | -0.07
TGTATCACGTGTTGAA | 0.1
TGATACACGTGTAAGG | 0.03
GTATTCACGTGCGTAT | 0.15
TTTCTCACGTGGTATG | 0.09
GTTATCACGTGCTGTT | 0.07
AGTGACACGTGGGGGA | -0.15
TGGTGCACGTGTAATA | 0.02
TGAGTCACGTGAGAGT | 0.38
TTCAACACGTGGTTGT | -0.07
ATCGCCACGTGGGTTG | -0.23
GTGTTCACGTGCAGTA | 0.15

Sequence | relative binding free energy [kcal/mol]
AAAAGCACGTGTTGTA | -0.13
AGTTGCACGTGGTGGG | -0.04
TGTAACACGTGTAATG | 0.04
CTGTGCACGTGTGTGT | 0
GTGTTCACGTGTTACT | 0.25
CTTTTCACGTGGCGGT | 0.07
CTTGACACGTGGGTTC | -0.08
GTTAACACGTGAGGTC | 0.29
TCATGCACGTGAGGAG | 0.24
GTCGTCACGTGGGAGT | 0.16
TGTTCCACGTGAGTGG | 0.18
AATTCCACGTGGTTAG | 0.1
TTGAGCACGTGCGGCA | -0.05
CGGGGCACGTGATAGC | -0.01
TCGTTCACGTGTTGGC | 0.46
GAGTTCACGTGGTGTT | 0.22
TTGCTCACGTGGGTAG | 0.18
ATGGACACGTGGTAAA | 0.04
CTATGCACGTGGTTGA | -0.09
TGTAACACGTGTAAAG | 0.12
TAGTTCACGTGTTTGC | 0.23
ATTGTCACGTGTGGAG | 0.23
TGTTCCACGTGTGGCG | 0.12

Sequence | relative binding free energy [kcal/mol]
TTGAGCACGTGATAGT | 0.05
ACTTGCACGTGAAGGG | 0.19
AGGATCACGTGTGGCT | 0.14
TGAAACACGTGGAAGG | 0.18
ATCTTCACGTGGGGCG | 0.14
TTCGTCACGTGTCGTT | 0.13
AGACTCACGTGGATGT | 0.34
AGATGCACGTGTGGTC | -0.03
GTGATCACGTGTGGTT | 0.19
TATTGCACGTGCTTTA | -0.13
AAGTACACGTGGTAGT | 0.08
GATGCCACGTGAGTGG | 0.22
ATTGGCACGTGGTATG | -0.14
AGGCGCACGTGGTGTC | -0.22
GGTGCCACGTGGGTTG | -0.11
GCGTTCACGTGGGTTC | 0.39
CTTGTCACGTGGGCGT | -0.07
TCGGACACGTGAGTTG | 0.42
TACGGCACGTGTAGTA | 0.18
GACTTCACGTGATGTT | 0.43
TCGGGCACGTGACGTT | -0.02
GTATGCACGTGCTGGT | -0.17
GTGGACACGTGTAAAT | 0.39

Sequence | relative binding free energy [kcal/mol]
GTCTACACGTGGGGGC | -0.02
GGATACACGTGGGTCA | -0.01
AGAAGCACGTGGGATT | -0.06
TTTTTCACGTGTAGCA | 0.33
GGGCTCACGTGCTGGA | 0.32
TCTTTCACGTGATTAG | 0.34
CTTTGCACGTGCGTTG | -0.22
AGAGGCACGTGACTGT | -0.06
ACGTGCACGTGTGTGG | -0.08
GGCGTCACGTGGTGTT | 0.12
CGGTTCACGTGGTGAG | 0.24
ATGTGCACGTGACATG | 0.08
AGAGTCACGTGTTTTG | 0.28
TAATGCACGTGTAGCG | -0.08
TGCTACACGTGAGGAT | 0.22
GATGTCACGTGAGTTG | 0.26
TCTTTCACGTGGGTAC | 0.17
TAAGTCACGTGTATAA | 0.09
TAATTCACGTGAGGCG | 0.24
ATCGGCACGTGTGTAG | -0.12
GTTGACACGTGGGTCG | -0.04
CGAGGCACGTGGTAAG | -0.16
AGATTCACGTGTAATG | 0.29

Sequence | relative binding free energy [kcal/mol]
TTGGACACGTGTGAGT | 0.13
TTATACACGTGGGTAG | -0.16
TTGTGCACGTGGGAAA | -0.02
GGTGTCACGTGCGGTG | 0.18
GAGAGCACGTGAGTGT | 0.14
TATATCACGTGAAGTC | 0.43
GTGTGCACGTGCGTGT | -0.02
TAGGCCACGTGTGGCT | 0.08
AACTGCACGTGGGTAT | -0.17
GTCGTCACGTGTGGCG | 0.07
AAGGGCACGTGTTGTC | -0.06
TAGGGCACGTGGCCTT | -0.18
TTCGGCACGTGGGGAA | -0.12
TCTGTCACGTGGAGTT | 0.19
GGCGACACGTGTTTGT | 0.19
AGTGGCACGTGACGCG | 0.04
GCGTGCACGTGAGTGA | 0.26
CGGAACACGTGGGCGG | -0.06
TGGGACACGTGATGGA | 0.13
TATATCACGTGCGGTG | -0.04
GTGTTCACGTGTGTTA | 0.31
TTAGTCACGTGAATGT | 0.21
CTAGTCACGTGGGTCA | 0.02
